Measurements taken from article PMC4336329 (PLoS ONE, 2015).
Screen size: about 310,000 compounds; about 2,200 (0.71%) showed an effect of 50% or more. The effect is printed as a negative number. This is one part of the list. Where a SMILES comes first, the peptide text is derived from it. The star is where a group is joined. Cbz = O=C(OCc1ccccc1)*

target: human ether-à-go-go-related gene (hERG) potassium channel (human, UniProt Q12809); test: primary screen, population patch clamp on CHO cells stably expressing hERG
Sequence (Q12809 whole entry, looked up): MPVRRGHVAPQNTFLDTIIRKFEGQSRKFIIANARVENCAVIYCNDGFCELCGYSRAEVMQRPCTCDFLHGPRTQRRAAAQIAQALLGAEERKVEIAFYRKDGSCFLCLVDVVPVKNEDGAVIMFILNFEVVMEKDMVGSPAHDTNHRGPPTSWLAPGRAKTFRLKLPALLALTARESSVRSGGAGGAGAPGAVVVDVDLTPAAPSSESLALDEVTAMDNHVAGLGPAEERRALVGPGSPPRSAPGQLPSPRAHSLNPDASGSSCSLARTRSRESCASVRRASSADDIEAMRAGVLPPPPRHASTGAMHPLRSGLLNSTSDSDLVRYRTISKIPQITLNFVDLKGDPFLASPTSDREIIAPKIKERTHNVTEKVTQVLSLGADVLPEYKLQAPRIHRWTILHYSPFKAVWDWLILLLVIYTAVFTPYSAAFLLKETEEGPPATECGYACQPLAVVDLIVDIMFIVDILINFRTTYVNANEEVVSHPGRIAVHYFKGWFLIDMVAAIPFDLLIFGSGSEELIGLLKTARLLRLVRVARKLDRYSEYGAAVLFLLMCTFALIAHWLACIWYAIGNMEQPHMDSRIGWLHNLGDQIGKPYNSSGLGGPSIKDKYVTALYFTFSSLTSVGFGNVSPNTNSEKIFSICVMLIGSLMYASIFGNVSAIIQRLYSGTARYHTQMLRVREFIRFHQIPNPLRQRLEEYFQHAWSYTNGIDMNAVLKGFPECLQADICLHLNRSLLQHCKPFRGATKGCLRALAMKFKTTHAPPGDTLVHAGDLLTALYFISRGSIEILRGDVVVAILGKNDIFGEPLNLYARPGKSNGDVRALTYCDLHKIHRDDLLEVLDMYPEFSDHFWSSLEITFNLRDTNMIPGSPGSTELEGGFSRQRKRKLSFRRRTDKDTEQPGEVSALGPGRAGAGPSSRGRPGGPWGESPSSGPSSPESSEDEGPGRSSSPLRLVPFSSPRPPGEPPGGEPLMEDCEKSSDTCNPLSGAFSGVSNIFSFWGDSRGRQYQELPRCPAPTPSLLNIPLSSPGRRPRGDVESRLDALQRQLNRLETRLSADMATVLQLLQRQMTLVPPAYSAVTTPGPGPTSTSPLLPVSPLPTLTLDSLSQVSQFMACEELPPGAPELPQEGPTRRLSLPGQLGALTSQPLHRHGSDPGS

| Compound | hERG current change (%, negative = inhibition) at 1uM |
| --- | --- |
| COc1ccc(-c2[nH]ncc2CN(C)CC2CCCCO2)cc1F (stereo not drawn) | 9.98% |
| C=CCN(c1ccc(C(=O)NC(C)C)cc1)S(C)(=O)=O | -9.08% |
| COc1ccc(N(CC(=O)NCCSc2ccccn2)S(=O)(=O)c2ccccc2)cc1OC | 11.9% |
| COc1cccc(N2CCN(C(=O)c3ccc(-c4ccccc4)cc3)CC2)c1 | -34.4% |
| COC(=O)c1ccc(OCC(O)CN2CCN(C(=O)c3ccco3)CC2)cc1.O=C(O)C(=O)O (stereo not drawn) | 1% |
| CC(C)[C@H](NC(=O)OCc1ccccc1)C(=O)N[C@@H](Cc1c[nH]c2ccccc12)C(=O)O (Cbz-Val-Trp-OH) | 4.26% |
| O=C(Nc1ccc(N2CCN(C(=O)c3ccccc3F)CC2)cc1)c1ncn[nH]1 | -0.254% |
| Br.COc1ccc(NC2=NCCCCC2)cc1 | 16% |
| CCCCC(=O)Nc1ccc(NC(=O)CC)cc1OC | 10.7% |
| Cc1ccc(C2(C)NC(=O)N(CC(=O)Nc3cc(C)on3)C2=O)cc1 (stereo not drawn) | -14.2% |
| CCCCn1nnc(NC(=O)C(c2ccccc2)c2ccccc2)n1 | 11.2% |
| CN(Cc1ccccc1)C(NC(=O)c1ccco1)C(Cl)(Cl)Cl (stereo not drawn) | 14.9% |
| COc1ccc(-c2nc3cc(C)ccn3c2NC(=O)c2ccccc2OC)cc1 | 12.1% |
| COc1ccc(CONS(=O)(=O)c2ccc(NC(C)=O)cc2)cc1Cl | -3.94% |
| CCN1CCN(c2ccc(NC(=O)c3ccc4c(c3)[nH]c(=O)n4Cc3ccc(F)cc3)cc2)CC1 | -2.24% |
| O=[N+]([O-])c1ccc2c(c1)nc1n2CCN(C2CCCCC2)C1 | -1.75% |
| Cc1ccc(C)c(-n2nnnc2SCC(=O)NCC2CCCO2)c1 (stereo not drawn) | 8.99% |
| COc1cccc(Cn2cc(/C=N/NC(=O)c3cc(O)cc(O)c3)c3ccccc32)c1 | 11% |
| CC1=[N+]([O-])C(C)(C)CC(C)(C)c2ccccc21 | 8.62% |
| COC(=O)c1ccccc1NC(=O)[C@@H]1CCC(=O)N1C1OC(=O)c2c1ccc(OC)c2OC (stereo partly drawn) | 10.2% |
| COc1ccc(NC(=O)C2CC(=O)n3ncnc3N2)cc1 (stereo not drawn) | 4.49% |
| Cc1c(C#N)c(N)nc(Cl)c1C#N | 11.2% |
| COC(=O)c1ccccc1NC(=O)CN1CCCCC1 | 32.9% |

| Compound | hERG current change (%, negative = inhibition) at 1uM |
| --- | --- |
| COc1ccc(CCNC(=O)[C@H](CCSC)NC(=O)N2CCn3c2nc2ccccc23)cc1OC | 12% |
| CC1(OC(=O)c2cccs2)C(=O)C=C2C=C(c3ccc(C#N)cc3)OC=C2C1=O (stereo not drawn) | 7.98% |
| CC1CCCC(C)N1C(=O)c1ccccc1Nc1ccc(SC(F)F)cc1 (stereo not drawn) | 5.69% |
| CCC(Sc1ccc2nnc(CCNS(=O)(=O)c3ccc(OC)cc3)n2n1)C(=O)OC (stereo not drawn) | 3.39% |
| COc1ccc(CC(=O)c2ccc(O)cc2O)cc1OC | 9.41% |
| Cc1cc(NC(=O)c2ccco2)ccc1NC(=O)Cc1cccs1 | -3.62% |
| Cc1ccc(-c2cnco2)cc1 | 10.4% |
| O=C(CSC1=NS(=O)(=O)c2ccccc21)Nc1ccccc1 | 10.7% |
| CCCCN=C1NN=C(c2ccc(C)c(C)c2)CS1 | 12.2% |
| COc1ccc(OCCCCc2c(C)n[nH]c2C)cc1.Cl | 12.1% |
| NC(=O)CC(c1ccccc1)c1ccc2c(c1)OCO2 (stereo not drawn) | 7.05% |
| O=C(O)c1ccc(F)c(S(=O)(=O)Nc2ccccc2Cl)c1 | 2.86% |
| O=C(NC(=S)Nc1ncc(Br)cc1Br)c1cncc(Br)c1 | 4.04% |
| Cc1nonc1OC(C)CNCCNc1ccc([N+](=O)[O-])cc1.Cl (stereo not drawn) | -15.8% |
| COc1ccc(CNS(=O)(=O)c2ccc3c(c2)NC(=O)CS3)cc1 | 2.4% |
| CCOc1ccccc1C(=O)n1nc(C)cc1C | 16.3% |
| O=C(NCCC1=CCCCC1)C(=O)NCc1ccccc1 | 11.1% |
| Cc1cc(C(=O)Nc2ccc(Cl)cc2)on1 | 28.2% |
| CC(C)Oc1ccc(C(CC(=O)O)Cc2ccccc2)cc1 (stereo not drawn) | 7.22% |
| Cc1ccc(S(=O)(=O)N(CC(=O)N/N=C\c2cccs2)c2cccc3cccnc23)cc1 | 4.24% |
| CCCOc1ccccc1C1NC(=O)NC(C)=C1C(=O)OCc1ccccc1 (stereo not drawn) | 5.23% |
| CCOc1c(Nc2ccc(C(C)C)cc2)c(=O)c1=O | 10.2% |
| Cc1csc(NC(=O)c2cccc(S(=O)(=O)N3CCN(C)CC3)c2)n1 | 16.6% |

| Compound | hERG current change (%, negative = inhibition) at 1uM |
| --- | --- |
| Cc1cc(-n2nc(C)cc2C)nc(N)n1 | 2.81% |
| COc1ccc(NC(=O)CCS(=O)(=O)c2ccc3c(c2)oc(=O)n3C)cc1 | 21% |
| O=C(NCc1ccncc1)c1ccc(NS(=O)(=O)c2ccc(F)cc2)cc1 | 6.46% |
| COC(=O)C(C)NC(=O)c1ccc(C(C)(C)C)cc1 (stereo not drawn) | 7.44% |
| Cc1cccc(NC(=O)CSc2nc3c(c(=O)[nH]2)CCCC3)c1C | 0.812% |
| CCOc1ccc(S(=O)(=O)N(CCO)CCO)cc1-c1nc2c(C(C)(C)C)nn(C)c2c(=O)[nH]1 | 15.3% |
| O=C1NCCNC(=O)c2ccccc2OCCOc2ccccc21 | 4.34% |
| Cc1nn(CC(=O)Nc2ccccn2)c(C)c1Br | 6.5% |
| CCN(C(=O)COC(=O)CSc1ccc(C)c(C)c1)C1CCS(=O)(=O)C1 (stereo not drawn) | -1.21% |
| CCOC(=O)C1CCN(Cc2c(F)cccc2Cl)CC1 | -5.72% |
| COc1ccc(NC(=O)CN(C)C(=O)c2cc(-c3ccncc3)nc3ccccc23)cc1 | 6.56% |
| O=C(c1cc(Cl)cc(Cl)c1)N1CCOCC1 | 14.6% |
| CSc1ccccc1NC(=O)c1ccccn1 | 1.22% |
| COc1cc(C(=O)N2CCN(S(=O)(=O)c3cccs3)CC2)cc(OC)c1C | 2.37% |
| COc1cccc2cc(C(=O)C3=C(O)C(=O)N(CCN4CCOCC4)C3c3ccc(Cl)cc3)oc12 (stereo not drawn) | 14.5% |
| COc1ccc(N2CCN(C(=O)C(CCSC)N=C3NS(=O)(=O)c4ccccc43)CC2)cc1 (stereo not drawn) | -4.88% |
| CCCCNC(=O)CCCn1c(=O)[nH]c2ccc(Br)cc2c1=O | 8.93% |
| Cc1cc2nnc(SCC(=O)N3CCCCC3)n2c(N)n1 | 10.6% |
| Cc1sc(NC(=S)NC(=O)c2cccs2)nc1-c1ccc(CC(C)C)cc1 | 6.24% |
| O=C(O)Cc1sc(Nc2cccc3ccccc23)nc1-c1ccccc1 | 12.9% |
| Cc1ccc(C(=O)Nc2cccc(C(F)(F)F)c2)cc1NC(=O)c1ccno1 | 0.3% |
| O=C1NC(=O)C(c2ccc(F)cc2)N1 (stereo not drawn) | 20.1% |
| CC1(C(=O)O)CCC(C(=O)NNC(=O)c2ccccc2Cl)C1(C)C (stereo not drawn) | 7.26% |

| Compound | hERG current change (%, negative = inhibition) at 1uM |
| --- | --- |
| Cn1c(CCNC(=O)c2ccco2)nc2ccccc21 | 0.814% |
| Cc1cnc(C(=O)OCC(=O)c2ccc(Br)s2)cn1 | 8.99% |
| COc1ccc(OCCOC(=O)c2nc3nccc(C)n3n2)cc1 | 3.47% |
| C=CCC1(CC=C)CCCN1C(=O)c1cc(COc2ccc(-n3cncn3)cc2)on1 | -5.5% |
| O=c1c(F)cn(C2CCCO2)c(=O)n1Cc1ccccc1F (stereo not drawn) | 9.46% |
| Cc1ccc(S(=O)(=O)n2nc(OC(=O)c3c(-c4ccccc4Cl)noc3C)cc2N)cc1 | 13% |
| COCCCNC(=S)N/N=C/c1ccc(OC)c(Br)c1 | 13.9% |
| COc1cccc(NC(=O)CN2C(=O)c3cccnc3Oc3ccc(Cl)cc32)c1 | 3.02% |
| Nc1ccccc1C(=O)N/N=C1\C2CN3CCN(C2)CC1(c1ccccc1)C3 | -1.63% |
| CC1(C)CC(=O)c2c(oc3ccc(NS(=O)(=O)c4cccc5cccnc45)cc23)C1 | 5.76% |
| CCOc1ccc(NS(=O)(=O)c2cc(C(=O)N3CC(C)OC(C)C3)ccc2C)cc1 (stereo not drawn) | 9.18% |
| COc1ccc(C)cc1NC(=O)C1C2C=CC(C2)C1C(=O)O (stereo not drawn) | 6.28% |
| Cc1cccc(NC(=O)CSc2nccn2Cc2ccco2)c1C | 10.4% |
| O=C(NCc1ccc2c(c1)OCO2)C1CCN(S(=O)(=O)N2CCOCC2)CC1 | 6.89% |
| CN(C(=O)C1CCCO1)c1nnc(-c2ccncc2)s1 (stereo not drawn) | 5.21% |
| COc1ccccc1NS(=O)(=O)c1cccc(NC(=O)c2nn(C)c(=O)c3ccccc23)c1 | 5.59% |
| CCCN(CC1CC1)c1nc(N)c2c(N)nc(OC)cc2c1C#N | 0.376% |
| O=C(O)c1ccc(N=Nc2c(O)ccc3ncccc23)cc1 | 13.9% |
| CC1Cc2ccccc2N1C(=O)c1cnc2ccccn2c1=O (stereo not drawn) | -6.13% |
| COc1cccc(C2C(C#N)=C(N)N(N(C)C)C3=C2C(=O)CCC3)c1 (stereo not drawn) | 7.95% |
| Cc1ccccc1OCC(=O)Nc1ccccc1C(=O)N1CCCCC1 | -4.24% |
